# Some of the results follow.
# B1: SBD-G4S3-Fc (protein)
# chain: MASIPSSASVQLDSYNYDGSTFSGKIYVKNIAYSKKVTVVYADGSDNWNNNGNIIAASFSGPISGSNYEYWTFSASVKGIKEFYIKYEVSGKTYYDNNNSANYQVSTGGGGSGGGGSGGGGSEFVPRDCGCKPCICTVPEVSSVFIFPPKPKDVLTITLTPKVTCVVVDISKDDPEVQFSWFVDDVEVHTAQTQPREEQFNSTFRSVSELPIMHQDWLNGKEFKCRVNSAAFPAPIEKTISKTKGRPKAPQVYTIPPPKEQMAKDKVSLTCMITDFFPEDITVEWQWNGQPAENYKNTQPIMDTDGSYFVYSKLNVQKSNWEAGNTFTCSVLHEGLHNHHTEKSLSHSPGAA
# How the values were obtained:
# Experiment in all cases: glycan array binding signal (z-score within array); higher = stronger binding
# Conditions in all cases: glycan notation: IUPAC condensed, linker removed
# [1] = molecular target: Gal(b1-3)GlcNAc(b1-6)[Gal(b1-3)]GalNAc
# Procedure, shortened: (§1)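 Glycan array data were curated from 3228 arrays in the Consortium for Functional Glycomics database and kept only where the protein sequence was available. Glycan names were converted to IUPAC-condensed notation, and columns mapping to the same glycan were averaged. The binding signal is a within-array Z-score, averaged across arrays of the same protein sequence at different concentrations or buffers and across linkers. Negative Z-scores can be read as non-binding.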
# [2] = molecular target: Gal(b1-3)GlcNAc6S
# Procedure, shortened: as §1
# [3] = molecular target: Gal(b1-3)[Fuc(a1-4)]GlcNAc
# Procedure, shortened: as §1
# [4] = molecular target: Gal(b1-3)[Fuc(a1-4)]GlcNAc(b1-2)Man
# Procedure, shortened: as §1
# [5] = molecular target: Gal(b1-3)[Fuc(a1-4)]GlcNAc(b1-2)Man(a1-3)[Gal(b1-3)[Fuc(a1-4)]GlcNAc(b1-2)Man(a1-6)]Man(b1-4)GlcNAc(b1-4)[Fuc(a1-6)]GlcNAc
# Procedure, shortened: as §1
# [6] = molecular target: Gal(b1-3)[Fuc(a1-4)]GlcNAc(b1-3)Gal(b1-3)[Fuc(a1-4)]GlcNAc
# Procedure, shortened: as §1
# [7] = molecular target: Gal(b1-3)[Fuc(a1-4)]GlcNAc(b1-3)Gal(b1-4)[Fuc(a1-3)]GlcNAc
# Procedure, shortened: as §1
# [8] = molecular target: Gal(b1-3)[Fuc(a1-4)]GlcNAc(b1-6)GalNAc
# Procedure, shortened: as §1
# [9] = molecular target: Gal(b1-3)[GlcNAc(b1-6)]GalNAc
# Procedure, shortened: as §1
# [10] = molecular target: Gal(b1-3)[Neu5Ac(a2-6)]GalNAc
# Procedure, shortened: as §1
# [11] = molecular target: Gal(b1-3)[Neu5Ac(a2-6)]GlcNAc(b1-4)Gal(b1-4)Glc
# Procedure, shortened: as §1
# [12] = molecular target: Gal(b1-3)[Neu5Ac(b2-6)]GalNAc
# Procedure, shortened: as §1
# [13] = molecular target: Gal(b1-4)Gal
# Procedure, shortened: as §1
# [14] = molecular target: Gal(b1-4)GalNAc(a1-3)[Fuc(a1-2)]Gal(b1-4)GlcNAc
# Procedure, shortened: as §1
# [15] = molecular target: Gal(b1-4)GalNAc(b1-3)[Fuc(a1-2)]Gal(b1-4)GlcNAc
# Procedure, shortened: as §1
# [16] = molecular target: Gal(b1-4)Glc
# Procedure, shortened: as §1
# [17] = molecular target: Gal(b1-4)Glc6S
# Procedure, shortened: as §1
# [18] = molecular target: Gal(b1-4)GlcNAc
# Procedure, shortened: as §1
# [19] = molecular target: Gal(b1-4)GlcNAc(a1-6)Gal(b1-4)GlcNAc
# Procedure, shortened: as §1
# [20] = molecular target: Gal(b1-4)GlcNAc(b1-2)Man
# Procedure, shortened: as §1
# [21] = molecular target: Gal(b1-4)GlcNAc(b1-2)Man(a1-3)Man(b1-4)GlcNAc(b1-4)GlcNAc
# Procedure, shortened: as §1
# [22] = molecular target: Gal(b1-4)GlcNAc(b1-2)Man(a1-3)[Gal(b1-4)GlcNAc(b1-2)Man(a1-6)]Man(b1-4)GlcNAc(b1-4)GlcNAc
# Procedure, shortened: as §1
# [23] = molecular target: Gal(b1-4)GlcNAc(b1-2)Man(a1-3)[Gal(b1-4)GlcNAc(b1-2)Man(a1-6)]Man(b1-4)GlcNAc(b1-4)[Fuc(a1-6)]GlcNAc
# Procedure, shortened: as §1
# [24] = molecular target: Gal(b1-4)GlcNAc(b1-2)Man(a1-3)[Gal(b1-4)GlcNAc(b1-2)Man(a1-6)][Gal(b1-4)GlcNAc(b1-4)]Man(b1-4)GlcNAc(b1-4)[Fuc(a1-6)]GlcNAc
# Procedure, shortened: as §1
# [25] = molecular target: Gal(b1-4)GlcNAc(b1-2)Man(a1-3)[Gal(b1-4)GlcNAc(b1-2)Man(a1-6)][GlcNAc(b1-4)]Man(b1-4)GlcNAc(b1-4)[Fuc(a1-6)]GlcNAc
# Procedure, shortened: as §1
# [26] = molecular target: Gal(b1-4)GlcNAc(b1-2)Man(a1-3)[GlcNAc(b1-2)Man(a1-6)]Man(b1-4)GlcNAc(b1-4)GlcNAc
# Procedure, shortened: as §1
# [27] = molecular target: Gal(b1-4)GlcNAc(b1-2)Man(a1-3)[GlcNAc(b1-4)][Gal(b1-4)GlcNAc(b1-2)Man(a1-6)]Man(b1-4)GlcNAc(b1-4)GlcNAc
# Procedure, shortened: as §1
# [28] = molecular target: Gal(b1-4)GlcNAc(b1-2)Man(a1-3)[Man(a1-6)]Man(b1-4)GlcNAc(b1-4)GlcNAc
# Procedure, shortened: as §1
# [29] = molecular target: Gal(b1-4)GlcNAc(b1-2)Man(a1-6)Man(b1-4)GlcNAc(b1-4)GlcNAc
# Procedure, shortened: as §1
# [30] = molecular target: Gal(b1-4)GlcNAc(b1-2)Man(a1-6)[GlcNAc(b1-2)Man(a1-3)]Man(b1-4)GlcNAc(b1-4)GlcNAc
# Procedure, shortened: as §1
# [31] = molecular target: Gal(b1-4)GlcNAc(b1-2)Man(a1-6)[Man(a1-3)]Man(b1-4)GlcNAc(b1-4)GlcNAc
# Procedure, shortened: as §1
# [32] = molecular target: Gal(b1-4)GlcNAc(b1-2)[Gal(b1-4)GlcNAc(b1-4)]Man(a1-3)[Gal(b1-4)GlcNAc(b1-2)Man(a1-6)]Man(b1-4)GlcNAc(b1-4)GlcNAc
# Procedure, shortened: as §1
# [33] = molecular target: Gal(b1-4)GlcNAc(b1-2)[Gal(b1-4)GlcNAc(b1-4)]Man(a1-3)[Gal(b1-4)GlcNAc(b1-2)[Gal(b1-4)GlcNAc(b1-6)]Man(a1-6)]Man(b1-4)GlcNAc(b1-4)GlcNAc
# Procedure, shortened: as §1
# [34] = molecular target: Gal(b1-4)GlcNAc(b1-2)[Gal(b1-4)GlcNAc(b1-4)]Man(a1-3)[GlcNAc(b1-4)][Gal(b1-4)GlcNAc(b1-2)Man(a1-6)]Man(b1-4)GlcNAc(b1-4)GlcNAc
# Procedure, shortened: as §1
# [35] = molecular target: Gal(b1-4)GlcNAc(b1-2)[Gal(b1-4)GlcNAc(b1-4)]Man(a1-3)[GlcNAc(b1-4)][Gal(b1-4)GlcNAc(b1-2)[Gal(b1-4)GlcNAc(b1-6)]Man(a1-6)]Man(b1-4)GlcNAc(b1-4)GlcNAc
# Procedure, shortened: as §1
# [36] = molecular target: Gal(b1-4)GlcNAc(b1-2)[Gal(b1-4)GlcNAc(b1-6)]Man(a1-6)[Gal(b1-4)GlcNAc(b1-2)Man(a1-3)]Man(b1-4)GlcNAc(b1-4)GlcNAc
# Procedure, shortened: as §1
# [37] = molecular target: Gal(b1-4)GlcNAc(b1-2)[Gal(b1-4)GlcNAc(b1-6)]Man(a1-6)[Gal(b1-4)GlcNAc(b1-2)Man(a1-3)]Man(b1-4)GlcNAc(b1-4)[Fuc(a1-6)]GlcNAc
# Procedure, shortened: as §1
binder,measurement,setting,value
B1,glycan array binding signal (z-score),[1],0.151
same,glycan array binding signal (z-score),[2],-0.378
same,glycan array binding signal (z-score),[3],-0.135
same,glycan array binding signal (z-score),[4],-0.252
same,glycan array binding signal (z-score),[5],0.378
same,glycan array binding signal (z-score),[6],-0.26
same,glycan array binding signal (z-score),[7],-0.317
same,glycan array binding signal (z-score),[8],-0.135
same,glycan array binding signal (z-score),[9],-0.227
same,glycan array binding signal (z-score),[10],-0.564
same,glycan array binding signal (z-score),[11],-0.176
same,glycan array binding signal (z-score),[12],-0.146
same,glycan array binding signal (z-score),[13],0.689
same,glycan array binding signal (z-score),[14],-0.533
same,glycan array binding signal (z-score),[15],-0.146
same,glycan array binding signal (z-score),[16],-0.078
same,glycan array binding signal (z-score),[17],-0.194
same,glycan array binding signal (z-score),[18],-0.072
same,glycan array binding signal (z-score),[19],-0.002
same,glycan array binding signal (z-score),[20],-0.114
same,glycan array binding signal (z-score),[21],0.225
same,glycan array binding signal (z-score),[22],0.533
same,glycan array binding signal (z-score),[23],0.49
same,glycan array binding signal (z-score),[24],-0.433
same,glycan array binding signal (z-score),[25],0.189
same,glycan array binding signal (z-score),[26],-0.37
same,glycan array binding signal (z-score),[27],-0.469
same,glycan array binding signal (z-score),[28],-0.401
same,glycan array binding signal (z-score),[29],-0.3
same,glycan array binding signal (z-score),[30],-0.286
same,glycan array binding signal (z-score),[31],0.054
same,glycan array binding signal (z-score),[32],-0.068
same,glycan array binding signal (z-score),[33],-0.13
same,glycan array binding signal (z-score),[34],-0.029
same,glycan array binding signal (z-score),[35],-0.045
same,glycan array binding signal (z-score),[36],-0.105
same,glycan array binding signal (z-score),[37],-0.217

# — the supplement of paper PMC8728848
